The record followed here is PubChem BioAssay AID1963576 (National Center for Advancing Translational Sciences (NCATS), 2024).

In all, about 46,000 compounds went through this assay and about 60 (0.1%) were called active. About 3% were inconclusive and are not listed. Calls come from the whole dose curve; as a rule, active = well fitted inhibition curve with a large enough effect; inconclusive = small, poorly fitted or top-dose-only effect; inactive = no such curve, though single readings can be large or run the other way. Some of the results follow.

This assay can be described thus: Primary qHTS assay for Inhibitors of ovarian cancer metastasis using an organotypic tumor microenvironment (TME) model.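 For activity change, negative = inhibition: plate controls were DMSO wells for no effect and tomatine positive control wells for full effect.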 Note: nearly all actives have a fitted effect of over 65% in size. Particulars: SKOV3ip1-GFP adhesion/invasion on 3D omental model, fluorescence; series mostly up to 45.8 µM; activity change, negative = inhibition: at the top concentration. Summed up:
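A 3D layer of primary human omental fibroblasts, mesothelial cells, fibronectin and collagen I, grown 48 hr, received SKOV3ip1-GFP cells in serum-free medium plus compounds at 0.36-46 umol/L. After 2 hr RT and 16 hr 37 C, fixed adherent GFP cells were counted; normalized to DMSO and tomatine.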
In the case of `Cc1ccc(-n2ncc3c(NC4CCCCC4)ncnc32)cc1Cl`, the “activity change, negative = inhibition” value is inactive: 6.5%.
For the molecule `CCOc1ccccc1C(=O)NCc1nc2cccnc2n1Cc1ccc(C)cc1`, the call was inactive.
Take `CCOc1cc(CNC(=O)c2ccc3c(c2)N(C)C(=O)C2CCCCN32)ccc1OC` (stereo not given): the “activity change, negative = inhibition” value was inactive: -6.25%.
For the molecule `COc1ccc(OC)c(NC(=O)CN2CCCN(Cc3ccccc3Cl)S2(=O)=O)c1`, the “activity change, negative = inhibition” value is inactive: -5.2%.
For `O=C(CNC(=O)c1ccc(F)cc1)OCc1cc(=O)n2nc(C3CCCCC3)sc2n1`, the “activity change, negative = inhibition” value is inactive: 86.1%.
`CN1CCC(COc2cnc(-c3cccc(Cn4nc(-c5cccc(C#N)c5)ccc4=O)c3)nc2)CC1`: the “activity change, negative = inhibition” value was inactive: 6.43%.
Still for that read-out and setting: the same measure for `CCOc1ccc(CNC(=O)CCS(=O)(=O)c2cc3c4c(c2)CCN4C(=O)CC3)cc1OC`: inactive: -9.84%; for `CC(C)c1cc(C(=O)N2Cc3ccc(CN4CCN(C)CC4)cc3C2)c(O)cc1O`: inactive: 4.68%.
For `O=C(CN1C(=O)COc2ccc(S(=O)(=O)N3CCCCCC3)cc21)N1CCN(c2ccccc2F)CC1`, the result was inactive.
On to `O=C(CSc1nccn1Cc1ccco1)Nc1cc(C(F)(F)F)ccc1Cl`, for which the “activity change, negative = inhibition” value is inactive: -4.28%.
Take `O=C(c1ccc2c(Cl)c3c(nc2c1)CCCC3)N1CCN(c2cccc(C(F)(F)F)c2)CC1`: the molecule was called inactive.
Consider `CCN(c1ccccc1)c1nnc(NC(=O)Nc2ccc(Br)c(C)c2)s1`, for which the “activity change, negative = inhibition” value was inactive: -6%.
For `Cc1ccc(CNC(=O)CN2CCN(Cc3ccc(F)cc3Cl)C2=O)cc1`, the outcome was inactive.
On the same count and under the same terms, as for `COc1ccc2c(CNCCc3cccs3)c(C(=O)O)n(Cc3cccc(F)c3)c2c1`, the entry is “inactive”.
On the same count and under the same terms, as for `COc1cc(OC)c(NC(=O)C2CCN(S(=O)(=O)c3ccc4c(c3)oc(=O)n4C)CC2)cc1Cl`, the entry is “inactive”.
Regarding `CCc1ccc(S(=O)(=O)c2cn(CC)c3cc(N4CCCCC4)c(F)cc3c2=O)cc1`, the “activity change, negative = inhibition” value was inactive: -10%.
On the same count and under the same terms, as for `COc1ccc2nc(NC(=O)c3cc(=O)c4cc(C)cc(C)c4o3)sc2c1`, the figure is inactive: -20.6%; as for `COc1ccc(OC)c(NC(=O)CCNS(=O)(=O)c2ccc3c(c2)oc(=O)n3C)c1`, inactive: -2.12%; as for `Nc1c(C(=O)NCc2ccc(Cl)cc2)sc2nc(-c3ccc(F)cc3)ccc12`, inactive: -7.94%.
Turning to `CCc1ccc(Nc2sc(C(=O)c3ccc(F)cc3)c(N)c2S(=O)(=O)c2ccccc2)cc1`, the molecule was called inactive.
Take `Cn1cnc(S(=O)(=O)N2CCCC(C(=O)Nc3ccc(F)cc3Cl)C2)c1` (stereo not given): the “activity change, negative = inhibition” value is inactive: 6.09%.
For the molecule `Cn1nnnc1SCCNCc1ccccc1OCc1ccccc1F`, the call was inactive.
Consider `Cc1ccc(Cn2c(C(=O)Nc3cccc(Cl)c3)cc3sccc32)cc1`, for which the result was inactive.
Still for that read-out and setting: the same measure for `CCOC(=O)c1cccc(NC(=O)c2ccc3c(c2)nnn3C2CCCC2)c1`: “inactive”.
As for `Cc1ccc(C2c3c(-c4ccccc4O)n[nH]c3C(=O)N2CCCO)cc1` (stereo not given), the “activity change, negative = inhibition” value is inactive: -2.79%.
Still for that read-out and setting: the same measure for `O=C(NCCn1cc(SCc2ccc(F)cc2)c2ccccc21)c1c(F)cccc1F`: inactive: 14.1%; for `CCCCc1cc(=O)oc2cc(C)c3c(C)coc3c12`: inactive: 3.67%.
Same read-out and setting: as for `COc1cccc(CNC(=O)C2CCN(c3nc4ccc(Cl)cc4[nH]3)CC2)c1`, the figure is inactive: 15.9%; as for `CSc1ncc(Cl)c(C(=O)Nc2ccc(S(=O)(=O)N3CCC(C)CC3)cc2)n1`, inactive: -9.4%.
With `CC(=O)c1ccc(N2CCN(S(=O)(=O)c3ccc4c(c3)CC(C)N4C(=O)C3CCC3)CC2)cc1` (stereo not given), the molecule was classed as inactive.
With `COC(=O)c1ccc(NS(=O)(=O)c2ccc(-n3cccn3)cc2)cc1`, the “activity change, negative = inhibition” value was inactive: 3.83%.
On the same count and under the same terms, as for `CCc1ccc(OCCCSc2nc(-c3ccc(C(C)(C)C)cc3)nc3cc(=O)[nH]n23)cc1`, the figure is inactive: -0.0165%.
On the same count and under the same terms, as for `CSc1nc(C)cc(Nc2c(C)cc(C)cc2C)n1`, the figure is inactive: -13.9%; as for `COc1cccc(C(=O)Nc2ccc(Cl)c(-c3nc4ccccc4[nH]3)c2)c1`, inactive: 1.87%; as for `COc1ccc2c(c1)CC(NC(=O)Nc1cc(Cl)ccc1OC)CO2` (stereo not given), inactive: -7.42%.
As for `Cc1ccccc1NC(=O)c1ccc2nc(Cc3ccccc3)oc2c1`, the “activity change, negative = inhibition” value was inactive: 14.6%.
Take `Cc1ccc(S(=O)(=O)c2cn(C)c3cc(N4CCCCCC4)c(F)cc3c2=O)cc1`: the “activity change, negative = inhibition” value was inactive: 7.16%.
Regarding `C=Cc1ccc(Cn2c(C(=O)O)c(CNCc3cccs3)c3ccc(C)cc32)cc1`, the “activity change, negative = inhibition” value was inactive: 4.51%.
Still for that read-out and setting: as for `Cc1ccc(Cn2c(=O)n(-c3ccccc3)c(=O)c3ccc(C(=O)NCc4ccco4)cc32)cc1`, the figure is inactive: -14.8%.
For `COc1ccccc1C(=O)Nc1c(C(=O)N(CCN(C)C)Cc2ccco2)oc2ccccc12`, the molecule was classed as inactive.
`Cn1c(SCc2ccc(F)cc2)nc2c([nH]c3ccccc32)c1=O`: the “activity change, negative = inhibition” value is inactive: -2.34%.
For `CCOc1ccc(NC(=O)c2cc3c(-c4ccccc4F)nn(C)c3s2)cc1`, the “activity change, negative = inhibition” value is inactive: -3.21%.
For `O=C(CCSCc1cnn(-c2ccccc2)c1-n1cccc1)NCc1ccccc1F`, the outcome was inactive.
Regarding `COc1ccc2cc3cc(C(=O)N4CCN(c5ccc(C(C)=O)cc5)CC4)sc3nc2c1Cl`, the “activity change, negative = inhibition” value was inactive: 3.62%.
Still for that read-out and setting: the same measure for `COc1ccc(C(=O)Nc2cc(-c3cccc(C)c3)nn2-c2ccccc2)cc1`: inactive: 6.05%; for `CCN(CC)CCNC(=O)c1sc2nc3n(c(=O)c2c1C)CCCCC3`: inactive: 5%; for `COc1ccc(OCC2c3cc(OC)c(OC)cc3CCN2C(=O)c2ccc(F)cc2)cc1` (stereo not given): inactive: -26.6%.
As to `CC(C)(C)OC(=O)N1CCC(c2c(C(=O)NCc3ccc(F)cc3)cnn2-c2ccc(F)cc2)CC1`, the result was inactive.
For the molecule `COc1cccc(C(=O)N(Cc2sccc2C)C2CCS(=O)(=O)C2)c1` (stereo not given), the “activity change, negative = inhibition” value was inactive: 9.42%.
`CCOC(=O)c1c(C)oc2nc(C)nc(N3CCN(c4ccc(C(C)=O)cc4)CC3)c12`: the “activity change, negative = inhibition” value is inactive: -18%.
Consider `Cc1cc(NC(=O)Cn2c(=O)nc(-c3ccccc3F)c3cc(Cl)ccc32)ccc1Br`, for which the “activity change, negative = inhibition” value is inactive: 15.2%.
As for `O=S(=O)(NCCc1csc2nc(-c3ccc(F)cc3)nn12)c1ccc(Br)cc1`, the “activity change, negative = inhibition” value is inactive: -0.994%.
On the same count and under the same terms, the same measure for `O=S(=O)(NCc1nc2cccnc2n1Cc1ccc(F)cc1)c1ccc2c(c1)CCCC2`: inactive: -1.24%.
Same read-out and setting: the same measure for `CCOC(=O)c1ccc(NC(=O)c2c(NCc3cccs3)sc3c2CCCCC3)cc1`: inactive: 7.1%; for `Cc1cccc(Cn2c(CN3CCC(C(=O)NCc4cccnc4)CC3)cc3ccccc32)c1`: inactive: -22.8%.
Turning to `Cc1ccc(NC(=O)Cn2c(=O)n(-c3ccc(Cl)c(Cl)c3)c(=O)c3c(C)c(C)sc32)c(C)c1`, the result was inactive.
Consider `CCN1CCN(c2cc(C)c3cc(NC(=O)c4cccc(C(F)(F)F)c4)ccc3n2)CC1`, for which the “activity change, negative = inhibition” value is inactive: 4.55%.
`CCOC(=O)c1c(N)n(-c2ccc(Cl)c(Cl)c2)c2nc3ccccc3nc12`: the molecule was classed as inactive.
For the molecule `COc1cccc(CSc2nc3n(n2)C(c2cccs2)C(C(=O)Nc2ccccc2C)=C(C)N3)c1` (stereo not given), the “activity change, negative = inhibition” value was inactive: -9.07%.
As for `COc1cn(CC(=O)Nc2ccc(F)cc2)c(CN2CCCCC2)cc1=O`, the call was inactive.
On to `CC1=C(C(=O)Nc2ccccc2C)C(c2ccncc2)n2nc(SCc3ccccc3)nc2N1` (stereo not given), for which the call was inactive.
As for `Cc1ccc(OCCn2cc(C(=O)C3CCCCC3)c3ccccc32)cc1`, the “activity change, negative = inhibition” value was inactive: -12.7%.
With `CCOC(=O)c1ccc(NC(=O)CC2C(=O)N(c3cccc(OC)c3)C(=O)N2C2CCCCC2)cc1` (stereo not given), the outcome was inactive.
Regarding `CCCCOC(=O)CSc1nnc(-c2ccccc2)o1`, the “activity change, negative = inhibition” value is inactive: 18.9%.
On the same count and under the same terms, the same measure for `CC(=O)Nc1nonc1-c1nnc(SCC(=O)Nc2cc(C)cc(C)c2)n1C`: inactive: -7.56%; for `Cc1ccc(C)c(N2CCN(C(=O)CN3CCSc4ccc(S(=O)(=O)N(C)C)cc43)CC2)c1`: inactive: 1.31%.
Consider `O=c1c2cccnc2n(Cc2ccccc2F)c(=O)n1Cc1ccccc1Cl`, for which the molecule was classed as inactive.
With `COc1cc(OC)c(NC(=O)CCCn2nc(C)c3sc4ccccc4c3c2=O)cc1Cl`, the molecule was called inactive.
`COC(=O)c1ccc(Cl)cc1NC(=O)N1CCCn2nc(C)cc21`: the “activity change, negative = inhibition” value was inactive: -5.76%.
The same measure, in the same setting: as for `COc1nc(-c2ccc(C)cc2)ccc1-c1noc(-c2ccccc2Br)n1`, the figure is inactive: -7.48%; as for `COc1ccc(-c2oc3ncn4nc(-c5ccccc5Br)nc4c3c2-c2ccc(OC)cc2)cc1`, inactive: 1.21%.
On to `COc1cccc(NC(=O)/C(C#N)=C\c2cn(Cc3ccc(C)cc3)c3ccccc23)c1`, for which the “activity change, negative = inhibition” value is inactive: -7.79%.
On to `COc1ccccc1CNc1ccc(-c2nc(C)no2)cc1[N+](=O)[O-]`, for which the result was inactive.
For `Cc1oc2ncn(CC(C)C)c(=O)c2c1C(=O)N1CCN(c2ccc(F)cc2)CC1`, the “activity change, negative = inhibition” value was inactive: -1.51%.
The same measure, in the same setting: the same measure for `O=C(CN1CCCN(Cc2ccc(Cl)cc2)S1(=O)=O)Nc1ccccc1F`: inactive: 4.55%.
Still for that read-out and setting: as for `COc1cccc(NC(=O)c2oc3ccccc3c2NC(=O)c2ccc(C(F)(F)F)cc2)c1`, the figure is inactive: 4.12%; as for `COc1cccc2c1Oc1ncccc1N(C(=O)CCC(=O)NCc1ccc(N(C)C)cc1)C2`, inactive: -3.69%.
Regarding `O=C(c1ccc2c(c1)N(Cc1cccc(Cl)c1)C(=O)c1ccccc1S2(=O)=O)N1CCCCC1`, the outcome was inactive.
Turning to `Cc1ccc2[nH]c3c(=O)n(CC(=O)N(C)c4cc(Cl)ccc4C)ncc3c2c1`, the “activity change, negative = inhibition” value was inactive: -1.59%.
On to `Cc1ccc(C)c(NC(=O)Cn2cc(C(=O)C3CCCCC3)c3ccccc32)c1`, for which the outcome was inactive.
As for `O=C1NC(=O)C(=Cc2cccc(C(F)(F)F)c2)S1`, the “activity change, negative = inhibition” value was inactive: -9.2%.
Turning to `CCOc1ccc(NC(=O)N2CC=C(c3c[nH]c4ccccc34)CC2)cc1`, the outcome was inactive.
Take `COc1ccccc1NC(=O)c1ccc2c(Cl)c3c(nc2c1)CCCC3`: the “activity change, negative = inhibition” value is inactive: 6.46%.
Still for that read-out and setting: the same measure for `COc1ccc(-n2c(=O)c3c4c(sc3n(Cc3ccccc3)c2=O)CN(C(C)=O)CC4)cc1OC`: inactive: -0.75%.
`CCOC(=O)c1c(C)[nH]c(C)c1S(=O)(=O)N1CCC(C(=O)N2CCN(c3ccc(Cl)cc3)CC2)CC1`: the molecule was called inactive.
In the case of `CC(=O)OCc1cnc(C)c2oc(=O)c(C(=O)Nc3cccc(F)c3)cc12`, the “activity change, negative = inhibition” value was inactive: 5.39%.
For the molecule `O=C(c1cc(=O)c2cc(Cl)ccc2o1)N(Cc1ccccc1)C1CCS(=O)(=O)C1` (stereo not given), the “activity change, negative = inhibition” value was inactive: -6.82%.
`COc1cc(Cl)c(C)cc1NC(=O)c1cc2ccc3cccnc3c2[nH]1`: the outcome was inactive.
Turning to `COc1cc2[nH]c(=O)n(Cc3ccc(C(=O)NCc4ccccc4)cc3)c(=O)c2cc1OC`, the “activity change, negative = inhibition” value is inactive: -14.5%.
Same read-out and setting: as for `CCCNC(=O)C1CCC(Cn2c(=O)c3sccc3n(Cc3ccccc3C)c2=O)CC1` (stereo not given), the figure is inactive: 0.731%.
On to `COc1ccc(Cl)cc1-n1nnc(-c2nc(-c3ccc4c(c3)OCO4)no2)c1C`, for which the “activity change, negative = inhibition” value was inactive: 10.7%.
With `Nc1ncnc2c1c(-c1cccc(OCc3ccccc3)c1)cn2C1CC(CN2CCC2)C1` (stereo not given), the “activity change, negative = inhibition” value was inactive: 3.04%.
As to `COc1ccc(NC(=O)CSc2nc3nc(C)c(Cc4ccc(C)cc4)c(C)n3n2)cc1OC`, the “activity change, negative = inhibition” value was inactive: -2.69%.
The same measure, in the same setting: as for `Cc1ccc(-n2ncc3c(NCCCc4ccccc4)ncnc32)cc1`, the figure is inactive: 1.3%; as for `Cc1nc(N2CCCC2)c2c(C(=O)Nc3cccc(Cl)c3C)c(C)oc2n1`, inactive: -28.7%.
